Measurements: the supplement of paper PMC4604168 (melanoma cell lines)
This is one part of the list. Most values come without repeats; read them as rough.

System: A2058
Assay: cell count relative to DMSO control; melanoma cells; higher = more viable cells
Settings: library dose: standard library concentration; 72 h
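Note: cells treated in 1,536-well plates, then fixed and DAPI-stained, with nuclei counted from automated high-throughput microscope images.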

SMILES	cell count [%]
C[C@]12O[C@H](C[C@]1(O)CO)n1c3ccccc3c3c4c(c5c6ccccc6n2c5c31)CNC4=O [Lestaurtinib] + COc1ccc(-c2ccc3c(N4CCOCC4)nc(N4C[C@@H](C)O[C@@H](C)C4)nc3n2)cc1CO [KU0063794] (first compound 0.02 µM, partner dose 0.1 µM)	78.1
C[C@]12O[C@H](C[C@]1(O)CO)n1c3ccccc3c3c4c(c5c6ccccc6n2c5c31)CNC4=O [Lestaurtinib] + C/C(O)=C(\C#N)C(=O)Nc1cc(Br)ccc1Br [LFM-A13] (first compound 0.02 µM, partner dose 10 µM)	86.2
Cn1cc(C2=C(c3cn(C4CCN(Cc5ccccn5)CC4)c4ccccc34)C(=O)NC2=O)c2ccccc21 [Enzastaurin] + O=C(O)[C@@H]1[O][Sb](=[O])([O][Sb]2(=[O])[O][C@H]([C@H](O)CO)[C@H](O)[C@H](C(=O)O)[O]2)[O][C@H]([C@H](O)CO)[C@@H]1O [stibogluconate] (first compound 4 µM, partner dose 10 µM)	100
N.N.[Cl][Pt][Cl] [cisplatin] + Nc1cccc2c1CN(C1CCC(=O)NC1=O)C2=O [lenalidomide] (first compound 8 µM, partner dose 5 µM)	102
Cn1cc(C2=C(c3cn(C4CCN(Cc5ccccn5)CC4)c4ccccc34)C(=O)NC2=O)c2ccccc21 [Enzastaurin] + Nc1ncn([C@H]2C[C@H](O)[C@@H](CO)O2)c(=O)n1 [decitabine] (first compound 4 µM, partner dose 0.5 µM)	59.2
Cn1cc(C2=C(c3cn(C4CCN(Cc5ccccn5)CC4)c4ccccc34)C(=O)NC2=O)c2ccccc21 [Enzastaurin] + COc1cc(N2CCC(N3CCN(C)CC3)CC2)ccc1Nc1ncc(Cl)c(Nc2ccccc2S(=O)(=O)C(C)C)n1 [NVP-TAE684] (first compound 4 µM, partner dose 0.4 µM)	48.5
Cn1cc(C2=C(c3cn(C4CCN(Cc5ccccn5)CC4)c4ccccc34)C(=O)NC2=O)c2ccccc21 [Enzastaurin] + NCC(=O)Nc1ccc(-n2nc(C(F)(F)F)cc2-c2ccc3c(ccc4ccccc43)c2)cc1 [OSU03012] (first compound 4 µM, partner dose 5 µM)	89.1
C[C@]12O[C@H](C[C@]1(O)CO)n1c3ccccc3c3c4c(c5c6ccccc6n2c5c31)CNC4=O [Lestaurtinib] + C[C@]1(c2nc3c(C(N)=O)cccc3[nH]2)CCCN1 [Veliparib] (first compound 0.02 µM, partner dose 7 µM)	73
Cn1cc(C2=C(c3cn(C4CCN(Cc5ccccn5)CC4)c4ccccc34)C(=O)NC2=O)c2ccccc21 [Enzastaurin] + c1cc(-c2cnn3cc(-c4ccc(OCCN5CCCCC5)cc4)cnc23)ccn1 [Dorsomorphin] (first compound 4 µM, partner dose 2 µM)	64.2
Cn1cc(C2=C(c3cn(C4CCN(Cc5ccccn5)CC4)c4ccccc34)C(=O)NC2=O)c2ccccc21 [Enzastaurin] + COc1ccc(Cl)c(Nc2nc3ccccc3nc2NS(=O)(=O)c2cccc(NC(=O)C(C)(C)N)c2)c1 [XL147] (first compound 4 µM, partner dose 4 µM)	77.5
C[As](C)SC[C@H](NC(=O)CC[C@H](N)C(=O)O)C(=O)NCC(=O)O [Darinaparsin] + C[C@@H]1CCN(C(=O)CC#N)C[C@@H]1N(C)c1ncnc2[nH]ccc12 [CP690550] (first compound 2 µM, partner dose 5 µM)	67.6
N.N.[Cl][Pt][Cl] [cisplatin] + CN(C)S(=O)(=O)c1ccc2c(c1)/C(=C/c1cc3c([nH]1)CCCC3)C(=O)N2 [SU6656] (first compound 8 µM, partner dose 2 µM)	122
C[As](C)SC[C@H](NC(=O)CC[C@H](N)C(=O)O)C(=O)NCC(=O)O [Darinaparsin] + NCC(=O)Nc1ccc(-n2nc(C(F)(F)F)cc2-c2ccc3c(ccc4ccccc43)c2)cc1 [OSU03012] (first compound 2 µM, partner dose 5 µM)	91.1
C[As](C)SC[C@H](NC(=O)CC[C@H](N)C(=O)O)C(=O)NCC(=O)O [Darinaparsin] + CN(NC(=O)CC(=O)NN(C)C(=S)c1ccccc1)C(=S)c1ccccc1 [STA4783] (first compound 2 µM, partner dose 0.03 µM)	9.52
N.N.[Cl][Pt][Cl] [cisplatin] + CCN(CC)CCCCNc1ncc2cc(-c3cc(OC)cc(OC)c3)c(NC(=O)NC(C)(C)C)nc2n1 [PD173074] (first compound 8 µM, partner dose 0.5 µM)	107
C[As](C)SC[C@H](NC(=O)CC[C@H](N)C(=O)O)C(=O)NCC(=O)O [Darinaparsin] + Cc1cc([N+](=O)[O-])ccc1NS(=O)(=O)c1cc(Cl)ccc1Cl [FH535] (first compound 2 µM, partner dose 5 µM)	77.1

SMILES	cell count [%]
C[As](C)SC[C@H](NC(=O)CC[C@H](N)C(=O)O)C(=O)NCC(=O)O [Darinaparsin] + Cn1cc(/C=C2\C(=O)Nc3cccnc32)c2ccccc21 [GW441756] (first compound 2 µM, partner dose 2 µM)	119
C[As](C)SC[C@H](NC(=O)CC[C@H](N)C(=O)O)C(=O)NCC(=O)O [Darinaparsin] + Cn1c(Nc2ccc(C(F)(F)F)cc2)nc2cc(Oc3ccnc(-c4ncc(C(F)(F)F)[nH]4)c3)ccc21 [CHIR265] (first compound 2 µM, partner dose 0.4 µM)	61
Cn1cc(C2=C(c3cn(C4CCN(Cc5ccccn5)CC4)c4ccccc34)C(=O)NC2=O)c2ccccc21 [Enzastaurin] + COc1ccc(-c2ccc3c(N4CCOCC4)nc(N4C[C@@H](C)O[C@@H](C)C4)nc3n2)cc1CO [KU0063794] (first compound 4 µM, partner dose 0.1 µM)	91.1
Cn1cc(C2=C(c3cn(C4CCN(Cc5ccccn5)CC4)c4ccccc34)C(=O)NC2=O)c2ccccc21 [Enzastaurin] + COc1cc2c(Oc3ccc4[nH]c(C)cc4c3F)ncnc2cc1OCCCN1CCCC1 [cediranib] (first compound 4 µM, partner dose 2 µM)	84.3
N.N.[Cl][Pt][Cl] [cisplatin] + Nc1ncn([C@H]2C[C@H](O)[C@@H](CO)O2)c(=O)n1 [decitabine] (first compound 8 µM, partner dose 0.5 µM)	68
C[C@]12O[C@H](C[C@]1(O)CO)n1c3ccccc3c3c4c(c5c6ccccc6n2c5c31)CNC4=O [Lestaurtinib] + Nc1ncn([C@H]2C[C@H](O)[C@@H](CO)O2)c(=O)n1 [decitabine] (first compound 0.02 µM, partner dose 0.5 µM)	66.4
N.N.[Cl][Pt][Cl] [cisplatin] + CCCS(=O)(=O)Nc1ccc(F)c(C(=O)c2c[nH]c3ncc(Cl)cc23)c1F [PLX4720] (first compound 8 µM, partner dose 0.4 µM)	90.8
C[C@]12O[C@H](C[C@]1(O)CO)n1c3ccccc3c3c4c(c5c6ccccc6n2c5c31)CNC4=O [Lestaurtinib] + Cn1nnc2c(C(N)=O)ncn2c1=O [temozolomide] (first compound 0.02 µM, partner dose 10 µM)	45.1
N.N.[Cl][Pt][Cl] [cisplatin] + CNC(=O)c1cc(Oc2ccc(NC(=O)Nc3ccc(Cl)c(C(F)(F)F)c3)cc2)ccn1 [sorafenib] (first compound 8 µM, partner dose 2 µM)	108
C[C@]12O[C@H](C[C@]1(O)CO)n1c3ccccc3c3c4c(c5c6ccccc6n2c5c31)CNC4=O [Lestaurtinib] + Cn1cc(/C=C2\C(=O)Nc3cccnc32)c2ccccc21 [GW441756] (first compound 0.02 µM, partner dose 2 µM)	112
C[C@]12O[C@H](C[C@]1(O)CO)n1c3ccccc3c3c4c(c5c6ccccc6n2c5c31)CNC4=O [Lestaurtinib] + O=C1NC(=O)/C(=C/c2ccc(-c3ccc(F)cc3O)o2)S1 [AS252424] (first compound 0.02 µM, partner dose 5 µM)	108
N.N.[Cl][Pt][Cl] [cisplatin] + Cc1ccc(NC(=O)c2cccc(N(C)C)c2)cc1NC(=O)c1ccc(O)cc1 [ZM336372] (first compound 8 µM, partner dose 10 µM)	122
C[As](C)SC[C@H](NC(=O)CC[C@H](N)C(=O)O)C(=O)NCC(=O)O [Darinaparsin] + Cc1cc(SCc2sc(-c3ccc(C(F)(F)F)c(F)c3)nc2C)ccc1OCC(=O)O [GW0742] (first compound 2 µM, partner dose 10 µM)	106
Cn1cc(C2=C(c3cn(C4CCN(Cc5ccccn5)CC4)c4ccccc34)C(=O)NC2=O)c2ccccc21 [Enzastaurin] + C=C(c1ccc(C(=O)O)cc1)c1cc2c(cc1C)C(C)(C)CCC2(C)C [Bexarotene] (first compound 4 µM, partner dose 10 µM)	78.2
C[C@]12O[C@H](C[C@]1(O)CO)n1c3ccccc3c3c4c(c5c6ccccc6n2c5c31)CNC4=O [Lestaurtinib] + C[C@@H](Oc1cc(-c2cnn(C3CCNCC3)c2)cnc1N)c1c(Cl)ccc(F)c1Cl [Crizotinib] (first compound 0.02 µM, partner dose 1 µM)	79.5
